Sequences and labels used below:
B1: GPR68, Q15743 (parent)
chain: MGNITADNSSMSCTIDHTIHQTLAPVVYVTVLVVGFPANCLSLYFGYLQIKARNELGVYLCNLTVADLFYICSLPFWLQYVLQHDNWSHGDLSCQVCGILLYENIYISVGFLCCISVDRYLAVAHPFRFHQFRTLKAAVGVSVVIWAKELLTSIYFLMHEEVIEDENQHRVCFEHYPIQAWQRAINYYRFLVGFLFPICLLLASYQGILRAVRRSHGTQKSRKDQIQRLVLSTVVIFLACFLPYHVLLLVRSVWEASCDFAKGVFNAYHFSLLLTSFNCVADPVLYCFVSETTHRDLARLRGACLAFLTCSRTGRAREAYPLGAPEASGKSGAQGEEPELLTKLHPAFQTPNSPGSGGFPTGRLA

Data set [1] covers variants of B1. The data set can be described thus: cAMP reporter score (Enrich2 score, wild type = 0); higher = more signal; HEK293T, FACS bins.
Variants of B1 are the subject of data set [2]. The data set is described as follows: surface expression score (Enrich2 score, wild type = 0); higher = more signal; HEK293T, FACS bins.

The least precise scores are not listed. Not listed are two conditions whose scores span a narrow range. Names with del lack the residues named; names with ins carry added residues between the positions named. For some assays here: The concentration of ogerin is not given here.

Regarding MGNITADNSSMSCTIDHTIHQTLAPVVYVTVLVVGFPANCLSLYFGYLQIKARNELGVYLCNLTVADLFYICSLPFWLQYVLQHDNWSHGDLSCQVCGILLYENIYISVGFLCCISVDRYLAVAHPFRFHQFRTLKAAVGVSVVIWAKELLTSIYFLMHEEVIEDENQHRVCFEHYPIQAWQRAINYYRFLVGFLFPICKLLASYQGILRAVRRSHGTQKSRKDQIQRLVLSTVVIFLACFLPYHVLLLVRSVWEASCDFAKGVFNAYHFSLLLTSFNCVADPVLYCFVSETTHRDLARLRGACLAFLTCSRTGRAREAYPLGAPEASGKSGAQGEEPELLTKLHPAFQTPNSPGSGGFPTGRLA [L200K], the cAMP reporter score is -1.66 in data set [1] (pH 5.5); -1.1 in data set [1] (pH 6); -3.21 in data set [1] (pH 6, modulator: ogerin); -0.632 in data set [1] (pH 6.5, modulator: ogerin). Moreover, the surface expression score in data set [2] is -1.71.
In the case of MGNITADNSSMSCTIDHTIHQTLAPVVYVTVLVVGFPANCLSLYFGYLQIKARNELGVYLCNLTVADLFYICSLPFWLQYVLQHDNWSHGDLSCQVCGILLYENIYISVGFLCCISVDRYLAVAHPFRFHQFRTLKAAVGVSVVIWAKELLTSIYFLMHEEVIEDENQHRVCFEHYPIQAWQRAINYYRFLVGFLFPICILLASYQGILRAVRRSHGTQKSRKDQIQRLVLSTVVIFLACFLPYHVLLLVRSVWEASCDFAKGVFNAYHFSLLLTSFNCVADPVLYCFVSETTHRDLARLRGACLAFLTCSRTGRAREAYPLGAPEASGKSGAQGEEPELLTKLHPAFQTPNSPGSGGFPTGRLA [L200I], the cAMP reporter score in data set [1] (pH 5.5) came out at 0.63; in data set [1] (pH 6), 2.64; in data set [1] (pH 6, modulator: ogerin), 0.441; in data set [1] (pH 6.5, modulator: ogerin), 2.19.
On to MGNITADNSSMSCTIDHTIHQTLAPVVYVTVLVVGFPANCLSLYFGYLQIKARNELGVYLCNLTVADLFYICSLPFWLQYVLQHDNWSHGDLSCQVCGILLYENIYISVGFLCCISVDRYLAVAHPFRFHQFRTLKAAVGVSVVIWAKELLTSIYFLMHEEVIEDENQHRVCFEHYPIQAWQRAINYYRFLVGFLFPICMLLASYQGILRAVRRSHGTQKSRKDQIQRLVLSTVVIFLACFLPYHVLLLVRSVWEASCDFAKGVFNAYHFSLLLTSFNCVADPVLYCFVSETTHRDLARLRGACLAFLTCSRTGRAREAYPLGAPEASGKSGAQGEEPELLTKLHPAFQTPNSPGSGGFPTGRLA [L200M], for which the cAMP reporter score in data set [1] (pH 5.5) was -0.039; in data set [1] (pH 6), -0.106; in data set [1] (pH 6, modulator: ogerin), 0.045; in data set [1] (pH 6.5, modulator: ogerin), -0.347. Also, the surface expression score in data set [2] is -0.748.
In the case of MGNITADNSSMSCTIDHTIHQTLAPVVYVTVLVVGFPANCLSLYFGYLQIKARNELGVYLCNLTVADLFYICSLPFWLQYVLQHDNWSHGDLSCQVCGILLYENIYISVGFLCCISVDRYLAVAHPFRFHQFRTLKAAVGVSVVIWAKELLTSIYFLMHEEVIEDENQHRVCFEHYPIQAWQRAINYYRFLVGFLFPICHLLASYQGILRAVRRSHGTQKSRKDQIQRLVLSTVVIFLACFLPYHVLLLVRSVWEASCDFAKGVFNAYHFSLLLTSFNCVADPVLYCFVSETTHRDLARLRGACLAFLTCSRTGRAREAYPLGAPEASGKSGAQGEEPELLTKLHPAFQTPNSPGSGGFPTGRLA [L200H], the cAMP reporter score was -2.2 in data set [1] (pH 5.5) and -1.69 in data set [1] (pH 6). Also, the surface expression score in data set [2] was -1.64.

These data come from the GPR68 mutational scans of Howard et al. (2025).
